± gives the standard deviation of the averaged measurements. The list shows a part of the results.
tested on: PfAP2-EXP AP2 domain (GST-tagged); experiment: gcPBM binding intensity (ln(normalized median fluorescence intensity)); higher = stronger DNA binding
How it was run: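 An Agilent 4 × 180k array of primer-extended double-stranded 36-bp intergenic genomic probes, with negative controls, was incubated for 1 h with GST-tagged P. falciparum DNA-binding domains expressed in E. coli. Alexa488 anti-GST antibody detected bound protein, scanned at 488 nm. Binding intensity is the highest Masliner-normalised natural-log median intensity across replicate spots of either probe orientation.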

| Sequence | gcPBM binding intensity (ln) |
| --- | --- |
| CGCGAAGTAGCATTCACACACAGCAAAATATAAATA [CACACA_site7608] | 8.71 ± 0.64 |
| ATATATATATATAGTGCACACTTAAGAATATAAAGA [CACACA_site4771] | 10.2 ± 0.13 |
| AACTATTACTTTCTTTCACACATTTTTTTTTTTTTT [CACACA_site5355] | 8.54 ± 0.32 |
| TGTTATATAATTTAGCGTACAGGTTATAGGACGGAT [XGTACX_site8823] | 9.05 ± 0.35 |
| AACTCTTAGAATGACGGTACAGTATAATAGGTGAAC [XGTACX_site7163] | 8.81 ± 0.5 |
| ATATAATGAATTATTAGAAAATAAAATGAATAAAGT [CACACA_negctrl_site690] | 8.88 ± 0.35 |
| TTTATTTATTTATGTGGTACTTCAAAAATATATACT [XGTACX_site355] | 8.6 ± 0.45 |
| GGATACGCTTTTGTACCACTCCCCCTTTTGGGAATA [CACACA_negctrl_site1363] | 8.88 ± 0.33 |
| CAAACCCACGGACACACACACACAAAAATGATTAAA [CACACA_site5365] | 8.46 ± 0.5 |
| ATCATATAAACATATTGTACTTAAATACATAATATT [XGTACX_site3800] | 8.46 ± 0.53 |
| AGCACACAAAAAAAAAAAAAAAAAAAAAAAGGAATG [GTGCAC_negctrl_site73] | 8.23 ± 0.59 |
| TATGTATTCATATGTTGTACATTATATATAATAAGT [XGTACX_site6589] | 8.67 ± 0.24 |
| AAATCAGAACCTATTTGTACATATACAAAAATGATT [XGTACX_site2421] | 8.38 ± 0.35 |
| CATATGTAGGGAACAATATAATATGCTTTGAATATG [GTGCAC_negctrl_site524] | 8.68 ± 0.45 |
| TTTTAATTAGCTAGACGTACAATAATATACAAATAT [XGTACX_site6068] | 8.56 ± 0.41 |
| ATTTTTTTAAGATAAGAAAAATAAAGTGTGGATATT [XGTACX_negctrl_site476] | 8.63 ± 0.43 |
| TTTATGCATAGAGAAACATGCAAGAAAGATGCAAAA [TGCATGCA_site726] | 9.03 ± 0.26 |
| GCTTGTACATTTTTAAAAAATGACTTCGAAAGGAAT [CACACA_negctrl_site453] | 8.88 ± 0.47 |
| TTCCTTATTATTATTTTACACACGTCCTAATAAGAG [CACACA_site8364] | 8.83 ± 0.59 |
| ATTATGTATACATAAACACACATATTTATAAAAAAA [CACACA_site6261] | 8.59 ± 0.42 |
| ATATATTTATATATATGTACATATTATGTTAAGAAA [XGTACX_site1111] | 8.59 ± 0.44 |
| TTAATATGAAATAAATGTACATAATACATAATAAAA [XGTACX_site6194] | 8.57 ± 0.4 |
| AATTGAAAAATATATAAGAAGAAATATATATATGTT [GTGCAC_negctrl_site97] | 8.55 ± 0.47 |

| Sequence | gcPBM binding intensity (ln) |
| --- | --- |
| GTTTTTAGTATTTTTTGTACTTAATACATAGCCTTA [XGTACX_site7318] | 8.54 ± 0.32 |
| AACACGCGCGGACACACACACACACCCACATATATA [CACACA_site5252] | 8.72 ± 0.55 |
| TATTAACAAATTTATGTGCACTGAGGACAAATATAT | 9.17 ± 0.18 |
| ATTTATATCTCCATATGTTCAAAACTTTCACAAATA [TGCATGCA_negctrl_site108] | 8.63 ± 0.41 |
| AATATAAATTAATTTACACACTAAAAAATATATATA [CACACA_site3778] | 8.52 ± 0.34 |
| AAAATAAGTAATTACTAATATATAAATTAATAATTA [CACACA_negctrl_site1602] | 8.22 ± 0.27 |
| AAAGAAAAAAAAATTACACACATATATTATATATAT [CACACA_site3211] | 8.62 ± 0.12 |
| TTTATTAATAAACACACACACACACCCAAAATAAAA [CACACA_site7966] | 8.96 ± 0.49 |
| AAATAGAAGAAATATGCACACATACATTGAAATGTT [CACACA_site7996] | 8.37 ± 0.51 |
| TTTTCTTCATAAATGCTGCACTGGTTTAAGCATGAT | 8.59 ± 0.4 |
| CCTTAATATTTTTGAAGTACATATTTATTTTACAAG [XGTACX_site3049] | 8.31 ± 0.33 |
| TTAGATTTAAATATCATACACACTTTATATATAATA [CACACA_site959] | 8.38 ± 0.47 |
| CTTGAAAAAATAAAAACACACAATGTGTTTTTGAAT [CACACA_site3283] | 8.25 ± 0.35 |
| ATAAAAATAAACATACGTACTTACACGAATATACAT [XGTACX_site5989] | 8.66 ± 0.37 |
| ATATTACTATATTATTGTACGTTAAAAAAAAAAAAT [XGTACX_site8734] | 8.51 ± 0.39 |
| TTTCTAAATAATTATAATGAATCTGCAAACAAGCAT [XGTACX_negctrl_site391] | 8.15 ± 0.23 |
| AATAAATAAATAAATAAATATATATATATATATATA [GTGCAC_negctrl_site224] | 10 ± 0.26 |
| TTATATTAAAAAAGATGTACGTTTAGGAAAAATATA [XGTACX_site7456] | 8.63 ± 0.38 |
| TGTATATATATCTCAGTGCATTGCAAATTAAAAATT [GTGCAC_site9646] | 8.65 ± 0.41 |
| ATACTCACGTGACACACACACAATATAAATAAATAT [CACACA_site7862] | 8.65 ± 0.46 |
| TATAATAATCTAATCTGTAGTTTTTTTTTTTTTTTT [CACACA_negctrl_site1206] | 8.09 ± 0.15 |
| GGCTTTTTTTAATATGCACACATATATTTTATATAT [CACACA_site8647] | 8.83 ± 0.028 |
| AAAAAAAAACAGAAAACACACAAATTATCTTATAAT [CACACA_site4326] | 8.45 ± 0.52 |

| Sequence | gcPBM binding intensity (ln) |
| --- | --- |
| CTTTTATTCAAAAGATGTACTTAAATATATATCTAA [XGTACX_site4326] | 8.18 ± 0.22 |
| TGCAGTCTGGAGAAACGTACACAGTATCTGGTAACA [XGTACX_site2014] | 8.62 ± 0.23 |
| ATGTGTATAATTAAATGTACATATATATATATATAT [XGTACX_site829] | 10.2 ± 0.2 |
| ATATATATCGGACACACACACATGTTTTAAAACTAT [CACACA_site4218] | 8.96 ± 0.38 |
| CATATAAATATTTGTGCACACAATTATTAATAATTA [CACACA_site3884] | 8.815 ± 0.078 |
| AAAAAGTTATTATGAACACACATTTATTATAGTCAT [CACACA_site6838] | 8.28 ± 0.31 |
| ATTTGAAATTGGTAGACACACAATAAAATATCAAAA [CACACA_site447] | 8.46 ± 0.35 |
| TTAAACTTGAGACACACACACACACGGATATAAAAA [CACACA_site6495] | 8.96 ± 0.52 |
| TAACATAAATTTAGGAGTACACTTTTTATACATACA [XGTACX_site4066] | 8.54 ± 0.22 |
| CATTATTATTAACATACACACGTGTTATATACCCCC [CACACA_site9365] | 10.2 ± 0.41 |
| TATATATTTATTTATAGTACACTATTTATGAAAACC [XGTACX_site3062] | 8.54 ± 0.29 |
| AAATTCACAATGTTTGGTACACATAAAAAAAAAAGA [XGTACX_site7109] | 8.73 ± 0.4 |
| AACATACGACAATACGCACACATATCTGTACATATT [CACACA_site5115] | 8.73 ± 0.38 |
| TTTATATATTTTGTCGTGCACATTTGGAAAATTACA [GTGCAC_site9776] | 9.21 ± 0.23 |
| TATTATTATTTTATGGTGCAAAAAAAAAAAAAAAAA | 8.66 ± 0.23 |
| AAAAATTTTTTTTTTTTTTTAAATAATAAAAATGAA [CACACA_negctrl_site1435] | 7.87 ± 0.42 |
| ATATTATAAAATAAAAGTACACAATTATATATATAT [XGTACX_site8812] | 9.46 ± 0.057 |
| AATAAAATGGAATACGGTACACATAATCCTAAAATG [XGTACX_site926] | 8.7 ± 0.44 |
| TATTTTTAAAATTAAATGAATAAATAAATAAATATA [XGTACX_negctrl_site553] | 8.17 ± 0.28 |
| TATCACTATAGACAAGCATGCATATGTACTAATATC [TGCATGCA_site1020] | 9.52 ± 0.6 |
| TTTATATTTATTGTTGTGCACAGAACCATATTCGTT | 9.11 ± 0.092 |
| AAACAATAAAAGATTACACACATATATAGCATCTAT [CACACA_site5012] | 8.39 ± 0.36 |
| TTTCATTTGTCGTTATGTACTTATTAAATATTATTA [XGTACX_site7709] | 8.88 ± 0.36 |

| Sequence | gcPBM binding intensity (ln) |
| --- | --- |
| TAAAGTAAAGACATACTTATTTTCCATCCACTTCTT [CACACA_negctrl_site1288] | 8.87 ± 0.39 |
| CACATACAGACATACACACATACACATATACGCATA [CACACA_site1745] | 8.71 ± 0.46 |
| ATATATATTTTTATAACACACAATGAAGTACATTAC [CACACA_site8270] | 8.65 ± 0.092 |
| ATATAATATGGTATTACACACTGTTAAAAGTATGGC [CACACA_site5190] | 8.64 ± 0.35 |
| TCTGTATATTTCGCGCGTACGAACAAATTGATAATT [XGTACX_site7965] | 8.94 ± 0.41 |
| ATATATATAAAATGTTGTACATATATATAAATAATA [XGTACX_site1661] | 8.27 ± 0.31 |
| CTAAAATACAGACACACACACACATATATATATATA [CACACA_site4150] | 10.1 ± 0.24 |
| GGGTTTTTAAAATGTAGTACATATGTAAACATCAAA [XGTACX_site1262] | 8.78 ± 0.4 |
| ATATGCTTATATTATATATATAAGTCTATATATTTT [XGTACX_negctrl_site349] | 8.21 ± 0.48 |
| TTAAAATAGGGCGAAGAAATTTTCTGTAAACATTTG [CACACA_negctrl_site1010] | 8.54 ± 0.38 |
| AACATCTCATATCGTACTACACTCATATATATATAT [XGTACX_site170] | 10 ± 0.23 |
| ATAAAATGAACCTTTTGTACATATATATATATATAT [XGTACX_site4610] | 10.1 ± 0.57 |
| ATATTATATATATATAAACACACAAATATTTTTATA [CACACA_site8486] | 8.43 ± 0.49 |
| CATAAATAAGCTTTAGTGCATTATATTTAAATTTTT | 8.44 ± 0.13 |
| TTTAATAATAATAAAAGTACACAAATATAAAGGAAA [XGTACX_site5203] | 8.86 ± 0.41 |
| TGAATATTTCTATATACACACATATATATATATATA [CACACA_site3451] | 10.3 ± 0.12 |
| AGGTTTTCTTAAATAGTGCATTATAACAAAAATAAA | 8.99 ± 0.39 |
| TCACGTATGTATATTACACACATACATATTATTCAC [CACACA_site4276] | 8.59 ± 0.38 |
| TTATACTAAATGAACACACACACATCTATATTTATA [CACACA_site6199] | 8.57 ± 0.45 |
| AATTAAAATAATAATACACACATCATAGAAAAAGAC [CACACA_site292] | 9.31 ± 0.2 |
